Drawing on publication PMC12136788, this text covers binding signal for 14 molecules.

B1: chr1:162599429:162599460:+|3pUTR|ENSG00000117143|msi1_unk|FALSE|overlapping (ssRNA)
RNA: GGGAGUUCUACAGUCCGACGAUCGGUAUUUGAACCAGAUACCAAGUUUUGUUUGCCACGAUAGGAAUAGCUUUUAUUUUUGAUAGACCAACUGUGAACCUACAAGACGUCUUGGACAACUGAAGUUUAAAUAUCCACAGGGUUCAACAGAGGAUUGAGCAUCA
B2: chr9:127733218:127733560:-|CDS|ENSG00000160404|control|control|control (ssRNA)
RNA: GGGAGUUCUACAGUCCGACGAUCGAGGUUCAGCUCUACAGCCUUAGCCUGUGCUCCCAGCAGAAUCCAGUUCCCCAUGGGCUUAGCUGGGCUUUCCCAGUGCCCUCCGCCACUCUCAGAGAUGACAUUGUCAUUCCGCCUGGUCAACAGAGGAUUGAGCAUCA
B3: chr2:9585027:9585123:-|3pUTR|ENSG00000134308|msi1_unk|total|mutant (ssRNA)
RNA: GGGAGUUCUACAGUCCGACGAUCGGAAAACUUCAUUCCUUGAUUUGUGUUUGUCUUGGCCUUCCUGGUGUGCAGUACUGCUGCCGAAAAGUAUUAACCGCUUCAUUUCAUAUAAACAUAAGUAACUCCCAAACACUUAUGCCGCAACAGAGGAUUGAGCAUCA
B4: chr2:216672581:216672718:-|3pUTR|ENSG00000115461|msi1|total|mutant (ssRNA)
RNA: GGGAGUUCUACAGUCCGACGAUCCACUCCACCAGUCCCCGGUCGCCAGCCGGAGUCUCCUCUCUACCGCCACUGUCACACCGCCGCCCACAUGGACCGCACAGUUGUCAGACAAGAUUCCUUCAGAUUCCGAGUUGCCUACCGCAACAGAGGAUUGAGCAUCA
B5: chr20:54218986:54219149:+|CDS|ENSG00000101132|unk|FALSE|unique (ssRNA)
RNA: GGGAGUUCUACAGUCCGACGAUCAAAUUUGCAAGAAGAAAUUGACGCCUUAGAAUCCAGAGUGGAAUCAAUUCAGCGAGUGUUAGCAGAUUUGAAAGUUCAGUUGUAUGCAAAAUUCGGGAGCAACAUAAACCUUGAAGCUGACAACAGAGGAUUGAGCAUCA
B6: chr13:19993219:19993350:+|CDS|ENSG00000121741|unk|total|mutant (ssRNA)
RNA: GGGAGUUCUACAGUCCGACGAUCUGAUGAUGAUGUUGUUUUUAUCGAACCUGUACAACCUCCCCCACCUUCUGUACCAGUGGCCGCUGAUCAAAGAACCAUAACAUUUACAUCAUCAAAAAAUGAAGAACUACAAGGAAAUGACAACAGAGGAUUGAGCAUCA
B7: chr6:43012266:43012370:-|3pUTR|ENSG00000124733|unk|FALSE|bound_elsewhere (ssRNA)
RNA: GGGAGUUCUACAGUCCGACGAUCGAGACCCACUUUAUUCAGUUCUGUACAUAUGGGGACAUCGGUCCAAGCCCAACCCACCUUAGCAUGUAUCACUCUGUGGAGAAUAAAGCACCCUAUGUACACAGCCAAAAGCCGCACUGCCAACAGAGGAUUGAGCAUCA
B8: chr17:65014400:65014519:-|CDS|ENSG00000120063|unk|FALSE|unique (ssRNA)
RNA: GGGAGUUCUACAGUCCGACGAUCAAACAAGACAGACUUGCUUGAGGAGAAGGUGCAAAUUGUGAGCAUCAAAGACUAUUUCCUAGAAUUUGAAGGGGAUCCCCACUGCUUAAGAGACGUCCAAAAAUUCCUGGUGGAAUGUUUCAACAGAGGAUUGAGCAUCA
B9: chr1:17068045:17068226:-|3pUTR|ENSG00000117115|msi1|FALSE|unique (ssRNA)
RNA: GGGAGUUCUACAGUCCGACGAUCCUCCUUCCACUGCCUUGACUUUCUUCCUUUUUAUUCCUGGUGCCAUCUGUCCAGGCAGCUAGACAAGAACUUGUUCGCCAGCAGCCAGAUUCAGGCCUUCCCAGGGGCAUAAUAAGUGACCAACAGAGGAUUGAGCAUCA
B10: chr1:93361585:93361687:+|3pUTR|ENSG00000117505|unk|FALSE|unique (ssRNA)
RNA: GGGAGUUCUACAGUCCGACGAUCUUUAACUUGUAGUUAUAGUUUACUUAUUGUUUUUAGAAUUACUUUUACAUUUUCCCAACUAGAUGGCCUAGAGUCCAACAUUACCUUUUGAGAUGACAUUAUUGUCUCCAUAAUUGAGUGCAACAGAGGAUUGAGCAUCA
B11: ENSG00000107863:be:win_5601|CDS|ENSG00000107863|bound_else_gene|NA|bound_elsewhere_windowed (ssRNA)
RNA: GGGAGUUCUACAGUCCGACGAUCAGGAGAAAUCGGAGAUCCCCAGACAGAGAACCCAAGCACACGAGAAAUAGCCACGACCGACACACCUUUGUCUCUUCAUUGCAACACAGGCAGUUCUUCCAGCACCUUGGCUUCAACAAACAACAGAGGAUUGAGCAUCA
B12: chr19:1925605:1925706:+|3pUTR|ENSG00000227500|msi1|FALSE|unique (ssRNA)
RNA: GGGAGUUCUACAGUCCGACGAUCUUUGGACACCCCAGGCUGCCACCCCUCCCCACCCGUUCACCCCCAGGAUGCUGUUGCUGUAGGACGCCUGCUGCCCUGGAGCCCUCCCCAGGAUGUGAGCCAGUCCCCUCGCUGGUACGGCAACAGAGGAUUGAGCAUCA
B13: chr4:137519872:137519973:-|3pUTR|ENSG00000189184|unk|FALSE|unique (ssRNA)
RNA: GGGAGUUCUACAGUCCGACGAUCAACUAUUCAUUUUUAGCUUUUGUCUCCAGUGCAUGAUCUCAUAUUUUUGCUUUUAUUUUUAGUAUAAGAACAUUUAUAAAAUCAUAUUUUUGUUACUGCAAUUGUUUUAUUUGUUGUGUGCAACAGAGGAUUGAGCAUCA
B14: chr2:159349074:159349175:-|CDS|ENSG00000123636|unk|FALSE|unique (ssRNA)
RNA: GGGAGUUCUACAGUCCGACGAUCUGGUGUGGUUACUUCUAAUAUUCCAUUUACAUCAUCUGUACCUAGUCUAGGAUCGGGGUUAGGGUUAUCAGAAGGAAAUGGUAAUUCAUUCUUGACUUCCAAUGUUGCUUCAAGUAAAAGCAACAGAGGAUUGAGCAUCA

The other results are listed elsewhere or left out.

The experiment addresses MSI1 full-length (mouse, UniProt Q61474 1-362). Nature of the experiment: nsRBNS (natural sequence RNA bind-n-seq); RBNS binding buffer (assumed for nsRBNS): 25 mM Tris pH 7.5, 150 mM KCl, 3 mM MgCl2, 0.01% Triton X-100, 500 ug/ml BSA, 20 U/ml SUPERase-In, 4 C; UNK is unkempt and MSI1 is Musashi-1; names of the RNAs are library labels; protein concentration not given here; high values mean tight binding.
Chain of UniProt Q61474 (Q61474 whole entry): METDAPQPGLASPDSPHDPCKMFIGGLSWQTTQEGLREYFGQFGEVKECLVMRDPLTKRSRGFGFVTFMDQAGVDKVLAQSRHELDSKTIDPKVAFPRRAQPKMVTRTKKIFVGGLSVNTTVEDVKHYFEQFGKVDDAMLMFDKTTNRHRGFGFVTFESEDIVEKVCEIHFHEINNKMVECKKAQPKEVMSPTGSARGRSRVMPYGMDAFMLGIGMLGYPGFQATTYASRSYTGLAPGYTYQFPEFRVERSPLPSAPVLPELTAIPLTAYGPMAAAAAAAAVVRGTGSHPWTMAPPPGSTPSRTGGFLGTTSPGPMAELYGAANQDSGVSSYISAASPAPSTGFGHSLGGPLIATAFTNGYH
B1: the binding signal came to 1.18 enrichment R.

For B2, the binding signal came out at 0.495 enrichment R. The result for B3 reads 0.333 enrichment R; that for B4, 0.679 enrichment R.

Molecule B5 displayed a binding signal of 0.378 enrichment R.

As for B6, the binding signal is 0.471 enrichment R. The result for B7 reads 1.41 enrichment R; that for B8, 0.362 enrichment R. The result for B9 reads 0.526 enrichment R; that for B10, 56.8 enrichment R; that for B11, 0.557 enrichment R.

For the molecule B12, the binding signal came out at 0.87 enrichment R. The result for B13 reads 4.24 enrichment R; that for B14, 0.385 enrichment R.
